The other results are listed elsewhere or left out. Antibody binding of pooled human sera (four to six donors per pool; dilution not stated) to peptides of the Trypanosoma cruzi antigen TSSA on microarrays. Quantile-normalised fluorescence in arbitrary units, mean of duplicate arrays; higher = more binding. No active / inactive call. The uninfected pools are read here as the healthy donors of the same country. The strongest signals lie near the top of the scale (about 60,000).
How the values were obtained:
Assay in all cases: antibody binding signal (normalised fluorescence) (arbitrary fluorescence units); higher = stronger serum antibody binding to peptide
[1] = tested on: pooled sera of chronic Chagas disease patients, Argentina
Experimental: (§1)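 Microarray of 15-residue peptides over residues 30-55 of Trypanosoma cruzi TSSAII, each with 1 to 10 substitutions at naturally variable positions, probed with one serum pool per country.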

[2] = tested on: pooled sera of chronic Chagas disease patients, Bolivia
Experimental: as §1

[3] = tested on: pooled sera of chronic Chagas disease patients, Brazil
Experimental: as §1

[4] = tested on: pooled sera of chronic Chagas disease patients, Colombia
Experimental: as §1

[5] = tested on: pooled sera of chronic Chagas disease patients, Mexico
Experimental: as §1

[6] = tested on: pooled sera of chronic Chagas disease patients, USA
Experimental: as §1

[7] = tested on: pooled sera of uninfected people, Argentina
Experimental: as §1

[8] = tested on: pooled sera of uninfected people, Bolivia
Experimental: as §1

[9] = tested on: pooled sera of uninfected people, Brazil
Experimental: as §1

[10] = tested on: pooled sera of uninfected people, Colombia
Experimental: as §1

[11] = tested on: pooled sera of uninfected people, Mexico
Experimental: as §1

[12] = tested on: pooled sera of uninfected people, USA
Experimental: as §1

| Sequence | antibody binding signal [1] | antibody binding signal [2] | antibody binding signal [3] | antibody binding signal [4] | antibody binding signal [5] | antibody binding signal [6] | antibody binding signal [7] | antibody binding signal [8] | antibody binding signal [9] | antibody binding signal [10] | antibody binding signal [11] | antibody binding signal [12] |
| --- | --- | --- | --- | --- | --- | --- | --- | --- | --- | --- | --- | --- |
| KKPATGGTPSPPGAS | 388 | 291 | 299 | 906 | 330 | 250 | 411 | 406 | 368 | 213 | 104 | 486 |
| GKDNKPAAGGAPSQP | 432 | 233 | 12100 | 964 | 1210 | 903 | 215 | 396 | 140 | 150 | 112 | 121 |
| KEKKPAAGGAPSPSG | 196 | 185 | 174 | 1490 | 205 | 313 | 126 | 92.6 | 144 | 81 | 80.3 | 323 |
| GTDKKAATGGAPSPS | 787 | 308 | 504 | 3100 | 1030 | 1140 | 333 | 642 | 119 | 433 | 122 | 148 |
| PPSGKDKKTAAGETP | 823 | 620 | 715 | 1040 | 31700 | 1800 | 202 | 356 | 111 | 271 | 78.2 | 97.1 |
| PSGKENKAATGGTPS | 5230 | 1130 | 8920 | 7530 | 8480 | 7100 | 5600 | 1710 | 186 | 430 | 312 | 211 |
| NKPAAGEAPSQPGAS | 9960 | 37400 | 45200 | 332 | 217 | 15700 | 567 | 1050 | 595 | 497 | 221 | 1060 |
| GKDNKAAAGEAPSQS | 8490 | 16700 | 17500 | 17400 | 15400 | 12300 | 232 | 327 | 138 | 230 | 102 | 124 |
| DKKTATGGAPSPPGA | 1130 | 565 | 1310 | 3410 | 1270 | 1240 | 340 | 176 | 110 | 116 | 283 | 148 |
| SSTPPSGTDNKPATG | 43400 | 44900 | 48700 | 6970 | 15800 | 35100 | 1910 | 1390 | 574 | 374 | 1150 | 478 |
| TEKKAATGEAPSQPG | 25900 | 37600 | 44700 | 403 | 682 | 26500 | 655 | 145 | 315 | 705 | 267 | 281 |
| EKKAAAGGAPSQPGA | 288 | 264 | 1870 | 4240 | 464 | 544 | 173 | 591 | 340 | 174 | 163 | 543 |
| TPPSGKENKPAAGET | 16600 | 35300 | 10800 | 428 | 4520 | 13700 | 2980 | 2650 | 298 | 993 | 337 | 504 |
| ENKTATGETPSPPGA | 408 | 1750 | 3940 | 256 | 201 | 7460 | 118 | 191 | 180 | 153 | 117 | 464 |
| PPSGTDNKAATGETP | 37200 | 30400 | 42700 | 1010 | 886 | 12800 | 482 | 617 | 893 | 182 | 183 | 215 |
| ENKPAAGGTPSPPGA | 828 | 2480 | 1210 | 1660 | 364 | 596 | 227 | 412 | 1130 | 429 | 168 | 264 |
| EKKAATGETPSPSGA | 2030 | 1260 | 10000 | 351 | 374 | 11000 | 704 | 837 | 140 | 896 | 289 | 1930 |
| DNKAAAGEAPSQSGA | 628 | 23300 | 27200 | 177 | 172 | 13800 | 95.6 | 342 | 180 | 93.5 | 224 | 111 |
| EKKTATGEAPSQSGA | 12500 | 20000 | 17500 | 330 | 769 | 20400 | 271 | 807 | 171 | 93.9 | 274 | 735 |
| DKKAAAGEAPSPPGA | 722 | 213 | 8200 | 379 | 400 | 11500 | 186 | 116 | 137 | 119 | 115 | 118 |
| KDKKPAAGETPSQPG | 266 | 260 | 24400 | 130 | 148 | 930 | 95.7 | 105 | 104 | 172 | 73.7 | 116 |
| GTDNKTATGETPSQS | 691 | 1380 | 32100 | 238 | 192 | 7530 | 100 | 597 | 1310 | 124 | 120 | 138 |
| STPPSGTDNKTATGE | 29200 | 38200 | 44500 | 811 | 9880 | 26700 | 888 | 489 | 888 | 219 | 155 | 136 |
| GKENKAAAGGTPSPP | 884 | 340 | 2640 | 4470 | 1650 | 7210 | 254 | 74.1 | 300 | 188 | 96 | 107 |
| GKDNKTAAGETPSPP | 1660 | 382 | 1120 | 3570 | 2360 | 2650 | 281 | 335 | 136 | 291 | 158 | 349 |

— the supplement of paper PMC10441789
